Source: the supplement of paper PMC3334620
Over roughly 33,000 sequences, “E-score (-0.5 to 0.5)” has its median near -0.043; the highest 2% begin near 0.37. This is one part of the list.

Molecular target: T1, Upc2 (UniProt Q12151)
T1 sequence: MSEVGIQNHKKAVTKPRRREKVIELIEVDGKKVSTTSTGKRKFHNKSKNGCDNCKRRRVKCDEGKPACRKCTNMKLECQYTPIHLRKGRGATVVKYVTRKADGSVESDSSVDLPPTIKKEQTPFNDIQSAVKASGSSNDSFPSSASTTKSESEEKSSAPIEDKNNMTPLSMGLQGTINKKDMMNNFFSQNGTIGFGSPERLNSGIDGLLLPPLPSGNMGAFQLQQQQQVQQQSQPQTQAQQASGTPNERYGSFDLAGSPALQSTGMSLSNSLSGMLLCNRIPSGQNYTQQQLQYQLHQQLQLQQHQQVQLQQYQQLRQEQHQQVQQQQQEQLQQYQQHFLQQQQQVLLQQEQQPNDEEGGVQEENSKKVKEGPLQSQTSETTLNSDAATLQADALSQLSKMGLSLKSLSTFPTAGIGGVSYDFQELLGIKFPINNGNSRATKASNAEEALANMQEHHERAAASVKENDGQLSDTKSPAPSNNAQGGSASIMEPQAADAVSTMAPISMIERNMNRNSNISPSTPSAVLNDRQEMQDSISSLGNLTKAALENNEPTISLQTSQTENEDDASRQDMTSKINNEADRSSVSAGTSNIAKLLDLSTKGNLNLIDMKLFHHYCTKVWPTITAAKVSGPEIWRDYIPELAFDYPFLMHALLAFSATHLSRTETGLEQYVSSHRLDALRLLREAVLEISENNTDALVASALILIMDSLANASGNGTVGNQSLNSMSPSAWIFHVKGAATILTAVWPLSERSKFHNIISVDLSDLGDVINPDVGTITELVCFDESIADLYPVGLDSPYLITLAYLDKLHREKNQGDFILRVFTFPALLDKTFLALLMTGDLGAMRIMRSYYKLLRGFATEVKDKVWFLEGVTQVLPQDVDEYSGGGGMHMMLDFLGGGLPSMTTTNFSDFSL
Experiment: PBM E-score (8-mer binding enrichment) (E-score (-0.5 to 0.5)); higher = stronger / more preferred TF binding; most listed sequences are background and not binding sites
Conditions: protein concentration: 200 nM; construct: GST-full length
How it was run: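 For each ungapped eight-base word taken together with its reverse complement, the Universal PBM Analysis Suite assigned an E-score. Binding data came from GST-tagged yeast transcription factors, applied at about 100-200 nM, on universal all-10-mer Agilent arrays made double-stranded by primer extension. Fluorescent anti-GST marked bound protein, and scans were normalised with masliner.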

Sequence | PBM E-score
GAGCCTGC | -0.051
AAACGGAC | 0.337
TAAAGCCA | 0.0825
CCAAGTCC | -0.0936
TCATGTCA | -0.251
AAGGCGCC | -0.0908
CCAGTGAG | -0.322
CCTGTCCA | -0.214
AATCGTCC | -0.0549
CTAACATC | -0.132
ACAAGGCT | -0.212
CCACCGCG | 0.129
TACGTCGA | 0.243
TACTCCGA | -0.127
GCGGCGAC | -0.106
ACAACCAC | -0.127
CCACCGGA | 0.0727
ATCATTGC | -0.208
ATGGATTA | -0.36
ACATGGCT | -0.0164
CCTCATAA | -0.134
AGTTGGTG | -0.0572
AATTGGGT | -0.00338
GAGAGATC | -0.0846
TCGATGCA | -0.311

Sequence | PBM E-score
AAATCGAC | 0.0518
AAACGCTC | 0.28
CGTAGCAC | 0.268
ATCGCCCA | -0.2
CTGACGTC | -0.0271
AGACAAGC | -0.146
CTTCGGAC | 0.0731
TGATACCA | 0.00459
CCCTCGGA | 0.195
CAGGCCGA | -0.137
ACAACGAT | 0.0582
CTTCTCAC | -0.111
CGACCCAG | 0.0427
AGCCGGCG | -0.0307
ACACGACA | 0.221
TCCGTAAA | 0.357
GTAGAGCA | -0.15
ACTCTGGG | -0.181
AGCGCTCG | 0.0458
CCTCGCAC | 0.242
TCTGACCA | -0.01
CGCGGTAG | -0.0437
GCTACAGA | -0.142
CCTGACCA | -0.0686
CAGACTTA | -0.00925

Sequence | PBM E-score
GCGACAAA | 0.00573
ACACTGAA | 0.116
ATCTCAAA | -0.0146
GATATCAA | -0.0695
GAACTGCA | -0.0845
TGTGGCAA | -0.137
GACTCCAA | -0.0615
CAAGACTA | -0.17
CATGGGAG | -0.106
GCGGTAAA | 0.184
CCCGCCCG | 0.178
ACCTCCCC | -0.124
ATACCTCC | -0.133
ACGCTCCA | 0.0069
TCTCCGAA | -0.0693
AACATACC | 0.16
AGATTGAA | -0.024
TCATACCA | -0.0495
ACAGGATA | 0.137
CGTAGGCA | 0.0401
AATGGCTC | -0.0554
CCACAATA | -0.13
CTAATTGA | -0.105
GCAATCGC | 0.0134
ATTGTCTA | 0.157

Sequence | PBM E-score
ATCTGATA | -0.215
GCATACCC | -0.14
CTCTGCCA | -0.155
CTCGGACA | 0.163
CCTAACTC | -0.0793
CAAACGTC | 0.197
GCTCGTTA | 0.39
ATAACAAC | 0.168
ATATTAAC | 0.17
ATAAACCA | 0.0435
ATCGCCTC | 0.0449
ACTGCCGG | -0.168
AAAGTATC | 0.0733
GGGATGAA | -0.326
AAAACTTC | 0.0711
AGTGCTTC | -0.0516
GAAGGTGA | -0.156
ACTACTGA | -0.0395
AGCATTAC | -0.00984
GAGGCATA | -0.0312
CATTTCAA | -0.00511
GCTGGAAA | -0.214
TGCCTGAA | -0.0575
AATCTCCG | -0.231
AGGAATAG | -0.169

Sequence | PBM E-score
CTCGGCCC | -0.0606
ACTCACAG | -0.238
CTCCGATC | -0.115
AAGGCCGA | -0.146
ACCTACGC | -0.0542
AGCTGACC | -0.287
CGCGAACG | 0.343
GAATAGGC | -0.117
CGGCCTCC | -0.0926
AAACGATC | 0.447
AGGGCACA | -0.113
GATCCTCA | -0.0157
AGCATGAT | -0.239
GGGATCCC | -0.0327
CAGTCTCA | -0.197
ATGCCAGC | -0.274
AGTAACAT | -0.0683
ATGGACGC | -0.084
AGACGTAG | -0.0671
ACAAATCT | 0.0248
ATACCATG | 0.122
AGGAATAA | -0.0267
CCGATTTA | 0.0459
ACCTAAGA | 0.0242
ATTGGAAG | -0.198

Sequence | PBM E-score
GCACAATA | -0.0363
GATGCGAA | 0.208
ATGTATCC | -0.153
ACCCTGCC | -0.246
GGCTCGCA | 0.17
CAGATTGA | -0.139
CAATAGTG | -0.167
GGTGGAGA | -0.233
CTGGTGAC | -0.0738
GGAAAGCA | 0.0137
CGACTTAA | 0.0813
CGAACTGC | 0.0104
AGAAACTG | -0.0203
GGCAATAA | -0.145
CTCCTGCC | -0.339
TGTCGAAA | -0.0598
AGTAAGGG | -0.189
ATCTAGTG | -0.00112
CATCCGTA | 0.309
CACACGTG | -0.154
GAGCACCA | -0.0195
CCGCCAAG | -0.0988
CGCCTGGC | -0.106
ACAAGACG | -0.0578
AGGGGTGG | -0.046

Sequence | PBM E-score
GATCAAGC | 0.159
CAAGACTG | -0.248
AAACCGCT | 0.0158
ACATGGTC | -0.122
CCTGAGCC | -0.329
AGTTTAAT | 0.0342
TCTTGGCA | -0.0579
AATCTAAG | 0.0399
AAACGAGC | 0.489
ACACGTCT | -0.205
ATTCACCA | -0.155
CTTGTACA | -0.0692
CTACACCA | -0.117
CCAACATC | -0.0625
CCCAGAAA | 0.0131
GGGCAAAC | -0.0772
TAGCCGGA | 0.00437
ACGTGTGG | -0.22
CTCGGCAC | -0.0884
CGTTCTGC | 0.234
ACCAAGCC | -0.167
AGTTGTGG | -0.0247
AAGGCTAC | -0.189
CCAAGCTA | -0.182
AAATAGAG | -0.128

Sequence | PBM E-score
CGGGAACA | 0.184
AACGACAG | 0.419
GACGCCAA | -0.0565
GAAGAGTA | 0.0847
CATTCGTC | 0.0696
GGTTGGCA | -0.0111
CTAAGTCA | -0.2
CTACGTGA | 0.0211
CCCAACTA | -0.0803
CCCGAGAG | -0.0376
AATTCGCC | 0.00468
ATAGCTGC | -0.0817
GCGGGCAA | -0.0677
AGCATATC | -0.146
GCGTTTGA | 0.151
AATATTGT | 0.0557
AATCTAAC | 0.0176
TAACCATA | 0.0159
ACTACGTA | 0.228
ACACCATA | 0.139
CCCATCTA | -0.214
ATGATCCA | -0.188
GTAGATGA | 0.0175
TGGATCCA | -0.13
GGCGAAAC | -0.0721

Sequence | PBM E-score
GATCCCAC | -0.111
ATTTGCGC | 0.024
AATCTTAG | -0.176
AGTGTTAT | -0.032
AAAGAGGG | 0.038
AGCGCTAC | 0.0662
CTGCCATA | 0.0818
AACCATAC | 0.146
TGACTACA | 0.0705
CAACTGCG | -0.0371
CTCCCTCC | -0.294
GAGCAAAA | -0.0717
CACTACGC | -0.169
ATCCAGGA | -0.263
AGATACTA | -0.151
AGGCCCTA | -0.156
GAACAGCC | -0.0262
ACATTCGG | 0.0333
CACTTGGA | -0.0876
